Article PMC11952846, “The sterol-regulating human ARV1 binds cholesterol and phospholipids through its conserved ARV1 homology domain” (The Journal of Biological Chemistry, 2025)
No constants are given. Whether binding was seen depends on the method and setting. For part of these data: In cells and extracts the contact can be indirect. Some entries that bind do so weakly or less than the wild type. Where a sequence is shown, tags or fusion partners need not be part of it.

How the values were obtained:
[1] = biological target: ARV1-MYC and ARV1-FLAG (human) (UniProt Q9H2C2); assay: co-IP; E. coli lysates with ARV1-MYC and ARV1-FLAG expressed separately and mixed; immunoprecipitated with anti-FLAG or anti-MYC, blotted with the antibody to the other tag; IgG as control
[2] = biological target: T1, ARV1-N98, yeast two-hybrid fusions (pAD-ARV1-N98 and pBD-ARV1-N98) (human) (UniProt Q9H2C2); assay: two-hybrid; yeast with p-AD and p-BD plasmids; serial dilutions on leu- trp- his- interaction selective medium, 37 °C, growth after 7 days
T1 sequence: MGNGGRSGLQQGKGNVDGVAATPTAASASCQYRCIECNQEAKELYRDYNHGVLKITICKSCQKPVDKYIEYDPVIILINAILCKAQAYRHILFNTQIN

[3] = biological target: full-length ARV1, yeast two-hybrid fusions (pAD-ARV1 and pBD-ARV1) (human) (UniProt Q9H2C2); assay: as above
[4] = biological target: T2, full-length ARV1, NanoBRET fusions (Halo-ARV1 and Nluc-ARV1) (human) (UniProt Q9H2C2); assay: FRET or BRET; Promega NanoBRET in HEK293T cells co-transfected with NanoLuc-fusion (donor) and HaloTag-fusion (acceptor) vectors; Halo + Nluc as negative control
T2 sequence: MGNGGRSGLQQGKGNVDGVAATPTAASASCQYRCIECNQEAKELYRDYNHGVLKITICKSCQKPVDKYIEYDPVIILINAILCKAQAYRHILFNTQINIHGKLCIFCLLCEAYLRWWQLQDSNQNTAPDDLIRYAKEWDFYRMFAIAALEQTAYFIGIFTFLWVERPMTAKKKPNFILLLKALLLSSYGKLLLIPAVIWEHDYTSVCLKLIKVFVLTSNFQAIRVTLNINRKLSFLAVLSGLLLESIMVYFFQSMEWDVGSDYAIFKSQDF

[5] = biological target: T3, ARV1-N98, NanoBRET fusions (Nano-Luc or Halo-tag) (human) (UniProt Q9H2C2); assay: as above
T3 sequence: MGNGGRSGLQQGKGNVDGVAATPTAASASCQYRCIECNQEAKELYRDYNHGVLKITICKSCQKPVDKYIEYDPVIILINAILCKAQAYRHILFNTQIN

GST-ARV1-N10 (human) = biological target: T4, GST-ARV1-N10 (human) (UniProt Q9H2C2); assay: far-Western, overlay or dot blot; GST, GST-ARV1 truncations and 6XHIS-ARV1 dotted onto nitrocellulose, incubated with 6XHIS-ARV1 protein, probed with anti-6XHIS (and anti-GST) antibodies; both purified
T4 sequence: MGNGGRSGLQ

GST-ARV1-N60 (human) = biological target: T5, GST-ARV1-N60 (human) (UniProt Q9H2C2); assay: as above
T5 sequence: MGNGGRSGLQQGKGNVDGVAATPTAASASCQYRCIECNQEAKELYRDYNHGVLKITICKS

B1: ARV1-MYC and ARV1-FLAG (protein, UniProt Q9H2C2 1-271)
chain: MGNGGRSGLQQGKGNVDGVAATPTAASASCQYRCIECNQEAKELYRDYNHGVLKITICKSCQKPVDKYIEYDPVIILINAILCKAQAYRHILFNTQINIHGKLCIFCLLCEAYLRWWQLQDSNQNTAPDDLIRYAKEWDFYRMFAIAALEQTAYFIGIFTFLWVERPMTAKKKPNFILLLKALLLSSYGKLLLIPAVIWEHDYTSVCLKLIKVFVLTSNFQAIRVTLNINRKLSFLAVLSGLLLESIMVYFFQSMEWDVGSDYAIFKSQDF
[1]
  binding: binds

B2: full-length ARV1, yeast two-hybrid fusions (pAD-ARV1 and pBD-ARV1) (protein, UniProt Q9H2C2 1-271)
chain: MGNGGRSGLQQGKGNVDGVAATPTAASASCQYRCIECNQEAKELYRDYNHGVLKITICKSCQKPVDKYIEYDPVIILINAILCKAQAYRHILFNTQINIHGKLCIFCLLCEAYLRWWQLQDSNQNTAPDDLIRYAKEWDFYRMFAIAALEQTAYFIGIFTFLWVERPMTAKKKPNFILLLKALLLSSYGKLLLIPAVIWEHDYTSVCLKLIKVFVLTSNFQAIRVTLNINRKLSFLAVLSGLLLESIMVYFFQSMEWDVGSDYAIFKSQDF
[2]
  binding: binds
[3]
  binding: binds

B3: ARV1-N98, yeast two-hybrid fusions (pAD-ARV1-N98 and pBD-ARV1-N98) (domain or fragment, UniProt Q9H2C2 1-98)
chain: MGNGGRSGLQQGKGNVDGVAATPTAASASCQYRCIECNQEAKELYRDYNHGVLKITICKSCQKPVDKYIEYDPVIILINAILCKAQAYRHILFNTQIN
[2]
  binding: binds

B4: full-length ARV1, NanoBRET fusions (Halo-ARV1 and Nluc-ARV1) (protein, UniProt Q9H2C2 1-271)
chain: MGNGGRSGLQQGKGNVDGVAATPTAASASCQYRCIECNQEAKELYRDYNHGVLKITICKSCQKPVDKYIEYDPVIILINAILCKAQAYRHILFNTQINIHGKLCIFCLLCEAYLRWWQLQDSNQNTAPDDLIRYAKEWDFYRMFAIAALEQTAYFIGIFTFLWVERPMTAKKKPNFILLLKALLLSSYGKLLLIPAVIWEHDYTSVCLKLIKVFVLTSNFQAIRVTLNINRKLSFLAVLSGLLLESIMVYFFQSMEWDVGSDYAIFKSQDF
[4]
  binding: binds
[5]
  binding: binds

B5: ARV1-N98, NanoBRET fusions (Nano-Luc or Halo-tag) (domain or fragment, UniProt Q9H2C2 1-98)
chain: MGNGGRSGLQQGKGNVDGVAATPTAASASCQYRCIECNQEAKELYRDYNHGVLKITICKSCQKPVDKYIEYDPVIILINAILCKAQAYRHILFNTQIN
[5]
  binding: binds

B6: Nluc-ARV1 (K67A), full-length ARV1 mutant (protein, UniProt Q9H2C2 1-271)
chain: MGNGGRSGLQQGKGNVDGVAATPTAASASCQYRCIECNQEAKELYRDYNHGVLKITICKSCQKPVDAYIEYDPVIILINAILCKAQAYRHILFNTQINIHGKLCIFCLLCEAYLRWWQLQDSNQNTAPDDLIRYAKEWDFYRMFAIAALEQTAYFIGIFTFLWVERPMTAKKKPNFILLLKALLLSSYGKLLLIPAVIWEHDYTSVCLKLIKVFVLTSNFQAIRVTLNINRKLSFLAVLSGLLLESIMVYFFQSMEWDVGSDYAIFKSQDF
[4]
  binding: binds

B7: Nluc-ARV1 (N94A), full-length ARV1 mutant (protein, UniProt Q9H2C2 1-271)
chain: MGNGGRSGLQQGKGNVDGVAATPTAASASCQYRCIECNQEAKELYRDYNHGVLKITICKSCQKPVDKYIEYDPVIILINAILCKAQAYRHILFATQINIHGKLCIFCLLCEAYLRWWQLQDSNQNTAPDDLIRYAKEWDFYRMFAIAALEQTAYFIGIFTFLWVERPMTAKKKPNFILLLKALLLSSYGKLLLIPAVIWEHDYTSVCLKLIKVFVLTSNFQAIRVTLNINRKLSFLAVLSGLLLESIMVYFFQSMEWDVGSDYAIFKSQDF
[4]
  binding: binds

B8: 6XHIS-ARV1 (full-length human ARV1, N-terminal 6XHIS tag) (protein, UniProt Q9H2C2 1-271)
chain: MGNGGRSGLQQGKGNVDGVAATPTAASASCQYRCIECNQEAKELYRDYNHGVLKITICKSCQKPVDKYIEYDPVIILINAILCKAQAYRHILFNTQINIHGKLCIFCLLCEAYLRWWQLQDSNQNTAPDDLIRYAKEWDFYRMFAIAALEQTAYFIGIFTFLWVERPMTAKKKPNFILLLKALLLSSYGKLLLIPAVIWEHDYTSVCLKLIKVFVLTSNFQAIRVTLNINRKLSFLAVLSGLLLESIMVYFFQSMEWDVGSDYAIFKSQDF
GST-ARV1-N10 (human)
  binding: no binding
GST-ARV1-N60 (human)
  binding: no binding

B9: Nluc-ARV1 (C58/C61A), full-length ARV1 mutant (protein, UniProt Q9H2C2 1-271)
chain: MGNGGRSGLQQGKGNVDGVAATPTAASASCQYRCIECNQEAKELYRDYNHGVLKITIAKSAQKPVDKYIEYDPVIILINAILCKAQAYRHILFNTQINIHGKLCIFCLLCEAYLRWWQLQDSNQNTAPDDLIRYAKEWDFYRMFAIAALEQTAYFIGIFTFLWVERPMTAKKKPNFILLLKALLLSSYGKLLLIPAVIWEHDYTSVCLKLIKVFVLTSNFQAIRVTLNINRKLSFLAVLSGLLLESIMVYFFQSMEWDVGSDYAIFKSQDF
[4]
  binding: no binding
